Some of the results follow.

This is an account of results in the antibiotic and cytotoxicity screens of Wong et al. (2023).

One experiment deals with HSkMC. As to the kind of experiment: cytotoxicity call (relative viability < 0.9). The conditions noted are these: 10 µM.
In the next experiment the test system is HepG2. Description: cytotoxicity call (relative viability < 0.9). To be noted: 10 µM.
Another experiment has as its system S. aureus RN4220. As to the kind of experiment: growth inhibition call (relative growth <= 0.2). To be noted: 50 µM.

Consider `CC(C)NC(=O)N[C@@H]1C=C[C@H](CC(=O)O)O[C@@H]1CO`, for which the cytotoxicity call in the experiment with HSkMC and in the experiment on HepG2 was “inactive” each time. Besides, the growth inhibition call with S. aureus RN4220 is “inactive”.
As for `OC[C@H]1CCCN1CC1CC1`, the cytotoxicity call with HSkMC and in the experiment on HepG2 was “inactive” throughout. Further, the growth inhibition call in the experiment on S. aureus RN4220 was “inactive”.
Regarding `Cn1cnc(CCNC(=O)C[C@@H]2CC[C@@H]3[C@H](COC[C@H](O)CN3C(=O)C3CC3)O2)c1`, the cytotoxicity call in the experiment with HSkMC and in the experiment with HepG2 was “inactive” throughout. In the experiment on S. aureus RN4220, the growth inhibition call is “inactive”.
As to `CN(C)CCOc1c(Br)cc(/C=C/C(=O)NCCCOc2c(Br)cc(CCN(C)C)cc2Br)cc1Br`, the cytotoxicity call with HSkMC is “inactive”. Further, the cytotoxicity call with HepG2 is “active”. Moreover, the growth inhibition call in the experiment on S. aureus RN4220 is “inactive”.
`CC(C)NC(=O)Nc1ccc2c(c1)C(=O)N([C@H](C)CO)C[C@H](C)[C@H](CN(C)Cc1ccc(Cl)c(Cl)c1)OCCCC[C@H](C)O2`: the cytotoxicity call in the experiment with HSkMC and in the experiment with HepG2 was “inactive” each time. Moreover, the growth inhibition call in the experiment with S. aureus RN4220 was “inactive”.
For the compound `C[C@@H]1CN([C@H](C)CO)S(=O)(=O)c2ccc(C#CC(C)(C)O)cc2O[C@H]1CN(C)Cc1ccncc1`, the cytotoxicity call in the experiment on HSkMC and in the experiment on HepG2 was “inactive” in each case. Moreover, the growth inhibition call in the experiment with S. aureus RN4220 was “inactive”.
With `O=C1CN(S(=O)(=O)Cc2ccccc2)C[C@@H]2[C@H](c3ccc(C#Cc4ccc(F)cc4)cc3)[C@@H](CO)N12`, the cytotoxicity call with HSkMC and in the experiment on HepG2 was “inactive” each time. In addition, the growth inhibition call with S. aureus RN4220 is “inactive”.
On to `Cc1noc(C)c1S(=O)(=O)N(C)C[C@H]1OCc2cnnn2CCCC(=O)N([C@H](C)CO)C[C@H]1C`, for which the cytotoxicity call in the experiment with HSkMC and with HepG2 was “inactive” in each case. For the same compound, the growth inhibition call with S. aureus RN4220 was “inactive”.
Take `C[C@H](CO)N1C[C@H](C)[C@@H](CN(C)Cc2ccc(C(=O)O)cc2)OCCCC[C@H](C)Oc2ccc(NC(=O)C3CCCCC3)cc2C1=O`: the cytotoxicity call with HSkMC and with HepG2 was “inactive” throughout. Moreover, in the experiment with S. aureus RN4220, the growth inhibition call is “inactive”.
As for `C[C@H]1CN([C@@H](C)CO)C(=O)c2cc(NC(=O)C3CCCCC3)ccc2O[C@H]1CN(C)S(=O)(=O)c1cn(C)cn1`, the cytotoxicity call with HSkMC and in the experiment on HepG2 was “inactive” in each case. Also, the growth inhibition call in the experiment with S. aureus RN4220 was “inactive”.
As to `C[C@@H]1CN([C@@H](C)CO)C(=O)c2cccc(NC(=O)Nc3ccccc3)c2O[C@@H]1CN(C)C(=O)Nc1cccc2ccccc12`, the cytotoxicity call with HSkMC was “active”. Also, the cytotoxicity call with HepG2 is “inactive”. Also, the growth inhibition call in the experiment with S. aureus RN4220 is “inactive”.
In the case of `CNC(=O)CN1CCO[C@H]2CN(C(=O)COC)C[C@@H]21`, the cytotoxicity call in the experiment with HSkMC and in the experiment on HepG2 was “inactive” in each case. Besides, the growth inhibition call in the experiment on S. aureus RN4220 was “inactive”.
Turning to `CO[C@@H]1CN(C)C(=O)c2cc(NS(=O)(=O)CC(F)(F)F)ccc2OC[C@H](C)N(C(=O)c2ccc3c(c2)OCO3)C[C@H]1C`, the cytotoxicity call in the experiment with HSkMC and with HepG2 was “inactive” in each case. The growth inhibition call in the experiment on S. aureus RN4220 was “inactive”.
As to `C[C@H](CO)N1C[C@H](C)[C@@H](CN(C)S(C)(=O)=O)Oc2ccc(NC(=O)c3ccncc3)cc2CC1=O`, the cytotoxicity call in the experiment on HSkMC and in the experiment with HepG2 was “inactive” each time. For the same compound, in the experiment on S. aureus RN4220, the growth inhibition call is “inactive”.
As for `CCCC(=O)Nc1ccc2c(c1)C(=O)N(C)[C@H]1CC[C@@H](CC(=O)NCCN3CCCCC3)O[C@H]1CO2`, the cytotoxicity call with HSkMC and in the experiment on HepG2 was “inactive” each time. Also, in the experiment on S. aureus RN4220, the growth inhibition call was “inactive”.
For the compound `COc1ccc(S(=O)(=O)N(C)C[C@@H]2Oc3ccc(NC(=O)Nc4c(C)noc4C)cc3CC(=O)N([C@@H](C)CO)C[C@H]2C)cc1`, the cytotoxicity call in the experiment on HSkMC and in the experiment with HepG2 was “inactive” each time. Further, the growth inhibition call in the experiment with S. aureus RN4220 is “inactive”.
Regarding `CN1CCN(C(=O)C[C@H]2C=C[C@H](NC(=O)Cc3ccccn3)[C@H](CO)O2)CC1`, the cytotoxicity call with HSkMC and in the experiment with HepG2 was “inactive” in each case. Besides, the growth inhibition call in the experiment on S. aureus RN4220 was “inactive”.
Turning to `CO[C@H](CN(C)S(=O)(=O)c1ccc(C)cc1)[C@@H](C)CN([C@@H](C)CO)S(=O)(=O)c1cccc(Cl)c1`, the cytotoxicity call with HSkMC and with HepG2 was “inactive” each time. For the same compound, in the experiment on S. aureus RN4220, the growth inhibition call was “inactive”.
On to `C[C@H](CO)N1C[C@H](C)[C@@H](CN(C)Cc2ccc(Cl)c(Cl)c2)OCCCC[C@H](C)Oc2ccc(NS(=O)(=O)c3ccc(Cl)cc3)cc2C1=O`, for which the cytotoxicity call with HSkMC and in the experiment on HepG2 was “inactive” each time. Besides, the growth inhibition call in the experiment with S. aureus RN4220 is “inactive”.
With `COc1ccc(CN(C)C[C@@H]2Oc3ccc(NC(=O)Cn4cnnn4)cc3CC(=O)N([C@H](C)CO)C[C@@H]2C)cc1`, the cytotoxicity call with HSkMC and with HepG2 was “inactive” in each case. Besides, in the experiment on S. aureus RN4220, the growth inhibition call was “inactive”.
Turning to `O=C(O)C[C@@H]1C(=O)O[C@H]2[C@@H](OC(=O)c3cc(O)c(O)c(O)c3)[C@H](OC(=O)c3cc(O)c(O)c4c3[C@H]1[C@H](O)C(=O)O4)[C@H](OC(=O)c1cc(O)c(O)c(O)c1)O[C@@H]2COC(=O)c1cc(O)c(O)c(O)c1`, in the experiment with HSkMC, the cytotoxicity call was “inactive”. In the experiment on HepG2, the cytotoxicity call is “active”. In addition, in the experiment on S. aureus RN4220, the growth inhibition call was “inactive”.
For `CCC(=C/[C@H](C)C/C=C/C(C)=C/[C@@H](C)C(=O)[C@@H](C)[C@H](O)[C@@H](C)C/C(C)=C/C(=O)O)/C=C/[C@@H]1OC(=O)C=C[C@@H]1C`, the cytotoxicity call with HSkMC and in the experiment with HepG2 was “active” throughout. For the same compound, the growth inhibition call in the experiment with S. aureus RN4220 is “active”.
As for `Cn1nnc2c(N3CCCC3)ncnc21`, the cytotoxicity call in the experiment on HSkMC and with HepG2 was “inactive” in each case. The growth inhibition call in the experiment on S. aureus RN4220 is “inactive”.
Consider `O=C(C[C@@H]1CC[C@H]2[C@@H](COC[C@H](O)CN2C(=O)Nc2ccc(Cl)cc2)O1)NC1Cc2ccccc2C1`, for which the cytotoxicity call in the experiment on HSkMC and in the experiment on HepG2 was “inactive” throughout. Also, the growth inhibition call with S. aureus RN4220 is “inactive”.
As for `C[C@H]1CN([C@@H](C)CO)C(=O)c2cc(NS(=O)(=O)c3cn(C)cn3)ccc2O[C@H]1CN(C)Cc1ccc(C(=O)Nc2ccccc2N)cc1`, the cytotoxicity call in the experiment on HSkMC (human skeletal muscle cells) and in the experiment with HepG2 was “inactive” each time. Also, the growth inhibition call in the experiment on S. aureus RN4220 is “inactive”.
